Measurements taken from PubChem BioAssay AID504339 (National Center for Advancing Translational Sciences (NCATS), 2011).
Hit rate of the full screen: of about 390,000 compounds, about 17,000 (4.4%) were called active. This list was built around the results that the source calls inconclusive (neither active nor inactive); the mix of calls is not that of the screen. Calls come from the whole dose curve; as a rule, active = well fitted inhibition curve with a large enough effect; inconclusive = small, poorly fitted or top-dose-only effect; inactive = no such curve, though single readings can be large or run the other way. Where the call is inconclusive, the potency comes from a doubtful curve fit.

Target: Lysine-specific demethylase 4A (Homo sapiens) (UniProt O75164)
Assay: qHTS Assay for Inhibitors of JMJD2A-Tudor Domain; note: nearly all actives have a fitted effect of over 50% in size
Settings: AlphaScreen JMJD2A-Tudor / H3K4me3 peptide binding; activity change, negative = inhibition: at 114 µM (top of the series)
% is set by controls: 0 for no effect and ±100 for the full control effect; potency is the fitted concentration of half-maximal effect; tags give direction and shape of the fitted curve.

Chain of UniProt O75164 (O75164 whole entry, looked up, the tested form may be a part): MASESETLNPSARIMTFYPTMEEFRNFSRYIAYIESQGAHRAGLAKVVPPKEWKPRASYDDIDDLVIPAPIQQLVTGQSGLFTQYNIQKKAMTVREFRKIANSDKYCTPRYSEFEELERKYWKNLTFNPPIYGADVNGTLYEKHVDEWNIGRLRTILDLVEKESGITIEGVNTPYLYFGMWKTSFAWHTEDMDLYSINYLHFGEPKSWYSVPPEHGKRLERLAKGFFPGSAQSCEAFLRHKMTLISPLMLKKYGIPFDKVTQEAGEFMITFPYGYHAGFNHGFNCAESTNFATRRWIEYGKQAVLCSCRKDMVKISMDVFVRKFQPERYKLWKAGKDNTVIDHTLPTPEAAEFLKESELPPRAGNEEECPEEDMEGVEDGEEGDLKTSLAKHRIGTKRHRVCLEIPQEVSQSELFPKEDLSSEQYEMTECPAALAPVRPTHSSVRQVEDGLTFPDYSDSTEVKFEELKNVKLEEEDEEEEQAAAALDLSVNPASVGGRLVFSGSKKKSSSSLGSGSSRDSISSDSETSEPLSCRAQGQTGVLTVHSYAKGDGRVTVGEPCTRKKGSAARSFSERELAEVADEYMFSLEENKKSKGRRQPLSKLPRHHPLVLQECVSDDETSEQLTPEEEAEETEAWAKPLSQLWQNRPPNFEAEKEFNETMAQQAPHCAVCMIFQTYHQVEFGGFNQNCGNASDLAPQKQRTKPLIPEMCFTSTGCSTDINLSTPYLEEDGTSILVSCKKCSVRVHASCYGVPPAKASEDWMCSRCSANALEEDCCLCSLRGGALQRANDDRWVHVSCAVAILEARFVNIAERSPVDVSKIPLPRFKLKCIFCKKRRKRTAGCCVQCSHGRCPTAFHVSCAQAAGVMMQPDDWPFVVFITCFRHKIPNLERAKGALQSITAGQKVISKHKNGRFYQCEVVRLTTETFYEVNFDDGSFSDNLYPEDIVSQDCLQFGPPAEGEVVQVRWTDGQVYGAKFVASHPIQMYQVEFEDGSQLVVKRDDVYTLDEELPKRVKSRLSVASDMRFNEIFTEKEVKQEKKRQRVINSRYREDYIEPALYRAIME

Potency, active:
CCCCCNc1nc(N2CCCC2)c2c(c1C#N)CCN(C)C2 56.2 µM
S=C(NCCCc1cnc[nH]1)NCCCN(CCc1ccc(Cl)cc1)c1ccc(Br)cn1 44.7 µM
CCOC(=O)c1sc2nccc(N(C)C)c2c1N=CNOC 25.1 µM
Cc1ccc2c(Cl)c(Cc3ccccc3)c(=S)[nH]c2n1 31.6 µM
C[C@]12CCC[C@H](O1)c1c(cc3c(c1O)C(=O)c1c(O)cc(O)cc1C3=O)O2 35.5 µM
COc1cc(C2C(C#N)=C(N)Oc3cc(N(C)C)ccc32)cc2c1OCO2 (centres undefined) 50.1 µM
COc1ccc(O)c(C(=O)/C=C/c2cc3ccccc3o2)c1 28.2 µM
S=c1[nH]nc(-c2ccc(Cl)cc2Cl)n1-c1ccc2c(c1)OCCO2 79.4 µM
Cc1cc(OCCOCCN(C)C)ccc1Cl 28.2 µM
O=C(CN1CCCC1)N/N=C/c1c(O)ccc2ccccc12 79.4 µM
O=[N+]([O-])c1ccccc1/C=N/N1CCN(c2ccncc2S(=O)(=O)N2CCCCC2)CC1 35.5 µM
COc1ccc(-n2nnnc2Sc2ccc(S(=O)(=O)N3CCOCC3)cn2)cc1 22.4 µM
COc1cccc(/C=N/NC(=O)C(C)n2nnc3ccccc32)c1 (centres undefined) 44.7 µM

Potency, inconclusive:
Cc1cc(NC(=O)CSCC(=O)N(c2ccc(F)cc2)C(C(=O)NC2CCCCC2)c2ccc(O)c(O)c2)no1 (centres undefined) 50.1 µM [inhibitor, single point]
Cc1cc2c3c([nH]c2cc1S(=O)(=O)NCc1ccc(CN2CCCCCC2)o1)CC(C)(C)CC3=O 50.1 µM [inhibitor, partial curve]
Cc1cc(/C=N\NC(=O)CC(=O)NC2CCCCC2)c(C)n1-c1ccc(Cl)cc1 44.7 µM [inhibitor, partial curve]
COc1ccc2nc(NC(=O)CCc3nc(-c4ccccc4F)no3)sc2c1 70.8 µM [inhibitor, single point]
COc1cccc(-n2c(-c3ccccc3F)nc3c(cnn3-c3ccc(C)cc3)c2=O)c1 5.62 µM [inhibitor, full curve]
Cc1ccccc1NC(=O)CSc1nc(-c2ccccc2)cn1-c1ccccc1F 50.1 µM [inhibitor, partial curve]
CC(C)(C)OC(=O)NCCCCCNC(=O)c1nc[nH]c1C(=O)N1CCc2ccccc2C1 50.1 µM [inhibitor, partial curve]
CC(OC(=O)c1cc(=O)c2ccccc2o1)C(=O)Nc1ccc(N(C)C)cc1 (centres undefined) 1.58 µM [inhibitor, full curve, poor fit]
COc1ccc(F)cc1CN1CCN(c2ncnc3scc(-c4ccccc4)c23)CC1 39.8 µM [inhibitor, full curve]
COc1ccccc1Cn1ccn(Cc2ccc(C)cc2)c(=O)c1=O 44.7 µM [inhibitor, partial curve]
Cc1cc(C)c(NC(=O)CSc2nccn2-c2cccc(Cl)c2)c(C)c1 50.1 µM [inhibitor, partial curve]
CCn1c(=O)cc(C(=O)OC)sc1=Nc1ccc(F)c(F)c1 50.1 µM [inhibitor, partial curve]
O=C(O)Cc1sc(Nc2ccc(F)cc2)nc1-c1cccs1 79.4 µM [inhibitor, partial curve]
Oc1c(C(c2ccccc2F)N2CCN(c3ccccc3F)CC2)sc2nc(-c3ccco3)nn12 (centres undefined) 50.1 µM [inhibitor, partial curve]
COC(=O)c1cc2oc(C)cc2n1CC(=O)N(C)c1ccccc1 89.1 µM [inhibitor, single point]
CCN(CC)CCCN(C(=O)c1ccccc1F)c1nc(-c2ccc(OC)cc2)cs1 44.7 µM [inhibitor, partial curve]
CCOc1cc(C(=S)N2CCN(C)CC2)ccc1OCC(=O)N1CCOCC1 79.4 µM [inhibitor, single point]
Cc1c(-c2ccccn2)c(=O)[nH]n1-c1ccc(F)cc1 89.1 µM [inhibitor, partial curve]
CCOC(=O)c1ccc(Nc2nc3nonc3nc2Nc2cccc(C)c2C)cc1 22.4 µM [inhibitor, full curve]
O=C(COC(=O)/C=C/c1ccco1)NC1CCCCC1 79.4 µM [inhibitor, partial curve]
COc1ccc(-c2nc3c4ccccc4ccn3c2CN2CCCCC2)cc1 56.2 µM [inhibitor, partial curve]
CCOC(=O)c1ccc(-n2c(CN(CC)CC)nc3ccc([N+](=O)[O-])cc3c2=O)cc1 56.2 µM [inhibitor, partial curve]
CSc1ccc(NC(=O)N2CC=C(n3c(=O)[nH]c4ccccc43)CC2)cc1 89.1 µM [inhibitor, partial curve]
Oc1ccc2ccccc2c1/C=N/Nc1nnc(-c2ncc[nH]2)c2ccccc12 63.1 µM [inhibitor, partial curve, poor fit]
CCC(CC)CN1CCC(CN2CCNC(=O)C2=O)CC1 79.4 µM [inhibitor, partial curve]
COC(=O)c1ccc(C23CC4(C2)[C@H](CN(Cc2cccnc2)[C@@H]4c2ccccc2)C3c2ccc(C(F)(F)F)cc2)cc1 (some centres undefined) 10 µM [inhibitor, full curve]
O=C1C2CC=CCC2C(=O)N1c1ccc(NCCc2ccc(Cl)cc2)c([N+](=O)[O-])c1 (centres undefined) 15.8 µM [inhibitor, partial curve]
CN(c1ccc(C(=O)NCc2ccco2)cc1)S(C)(=O)=O 79.4 µM [inhibitor, single point]
O=C(Nc1ccc(-c2nc3cc(NC(=O)c4ccccc4F)ccc3o2)cc1)c1ccccc1F 15.8 µM [inhibitor, partial curve]
O=C1c2ccccc2S(=O)(=O)c2cc(C(=O)N3CCN(c4ncccn4)CC3)ccc21 63.1 µM [inhibitor, partial curve, poor fit]
O=C1c2ccccc2NC(c2cccc([N+](=O)[O-])c2)N1CCc1ccccc1 (centres undefined) 28.2 µM [inhibitor, full curve, poor fit]
COc1ccc(N2CCN(c3cc(C)c4ccc(C)cc4n3)CC2)cc1 7.08 µM [inhibitor, full curve, poor fit]
COCCn1nnnc1C(c1cc2ccc(C)cc2[nH]c1=O)N(Cc1ccco1)Cc1cccs1 (centres undefined) 39.8 µM [inhibitor, partial curve]
O=c1[nH]c(CN2CCN(c3ccc([N+](=O)[O-])cc3)CC2)nc2ccsc12 14.1 µM [inhibitor, full curve]
Nc1ccc2nc(-c3cc(Cl)c(N)c(Cl)c3)[nH]c2c1 39.8 µM [inhibitor, single point]
CC(C)(C)C(=O)O/N=C1/C(=O)N(c2ccccc2)c2ccccc21 56.2 µM [inhibitor, partial curve]
Cc1nc(Nc2ccc(S(N)(=O)=O)cc2)sc1-c1ccccc1 35.5 µM [inhibitor, partial curve]
CC(C)(C)OC(=O)CNC(=O)c1nc[nH]c1C(=O)NCC(=O)OC(C)(C)C 79.4 µM [inhibitor, partial curve]
O=C(c1ccc(Cl)cc1)N1CCN(c2ccc([N+](=O)[O-])c(NCc3cccnc3)c2)CC1 56.2 µM [inhibitor, partial curve]
N=C1C=CC=C2C1=NC1(CCCCC1)N2O 56.2 µM [inhibitor, partial curve]

Activity change, negative = inhibition, inactive:
CCOC(=O)Cn1c(=O)cc(C(F)(F)C(F)(F)F)c2c(C)nn(CC)c21 61.9%
COc1ccccc1N1CCN(C(=O)Cc2cccs2)CC1 -12.6%
CCOC(=O)C(Cc1ccccc1)NC(=O)CCc1c(C)nc2nc(C)nn2c1C (centres undefined) 7.07%
COC(=O)/C=C1\N/C(=N/c2nc(C)c3cc(OC)ccc3n2)NC1=O -16.3%
CC1(C)C(c2cccs2)=[N+]([O-])C2(CCCCC/C2=N\NC(N)=S)N1O (centres undefined) -0%
Cc1cc(F)ccc1S(=O)(=O)Nc1ncnc2sccc12 -2.26% [at 11.4 µM]
Cc1cc(OCCn2c(CCNC(=O)C3CCCCC3)nc3ccccc32)ccc1Cl -11.4%
O=C(N/N=C/c1cccc(Cl)c1)C1CCCC1 -10.3%
O=C(NCc1ccccc1)c1cc[n+](CC(=O)c2cccs2)cc1 -29.4%
CCOc1ccc(NC(=O)CCN2C(=O)c3cccc([N+](=O)[O-])c3C2=O)cc1 -12.2%
CNS(=O)(=O)c1ccc(NC(=O)c2cc(-c3ccncc3)nc3ccc(Cl)cc23)cc1 -5.84%
Cc1ccc(CNC(=O)C(=O)NCC(c2cccnc2)N2CCN(c3ccc(F)cc3)CC2)cc1 (centres undefined) -4.93%
Cc1nnc(SCCn2c(N(C)Cc3ccccc3)nc3c2c(=O)n(C)c(=O)n3C)s1 -10.2%
CSc1nnc(SCC#N)s1 -19.1%
COC(C/C=C\[C@H](O)COCc1ccccc1)OC -3.57%
O=C(CC(c1ccco1)S(=O)(=O)c1ccccc1)c1ccc(F)cc1 (centres undefined) -30.2%
